# The campaign covered roughly 360,000 compounds. About 6,000 (1.7%) were called active. Inconclusive results, whose numbers are uncertain, are shown with a selection of clear calls. The call rests on the fitted dose curve; in most records, active means well fitted cell-killing curve with a large enough effect; inconclusive means small, poorly fitted or top-dose-only effect, or effect the other way; inactive means flat fitted curve, though single readings scatter. No potency is given beside an inconclusive call; the fits are too rough.
# Test: qHTS for induction of synthetic lethality in tumor cells producing 2HG: qHTS for the HT-1080-NT fibrosarcoma cell line;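 further: NT is the 2HG producing partner of a matched IDH1 knockdown line; nearly all actives have a fitted effect of over 55% in size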;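 on activity, negative = less viability: 0% = DMSO-treated cells and -100% = media-only wells without cells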
# Details: HT-1080-NT fibrosarcoma viability, CellTiter-Glo ATP luminescence, 48 h; activity, negative = less viability: at 46.1 µM (top of the series) unless noted
# Outline: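 Viability of the 2HG-overproducing fibrosarcoma line after 48 hours of compound exposure at 37 degrees C was determined by luminescence with CellTiter-Glo, and concentration-effect curves were then fitted and categorized.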
# Potency means the concentration at half of the fitted maximal effect; tags describe the fitted curve by direction and shape.
SMILES,Potency,"activity, negative = less viability"
CCCC(=O)N1CCC1(C)C(=O)Nc1ccc(-n2cccc2)cc1 (stereo not given),"inconclusive [rising, partial curve]",
COc1cc2c(cc1OC)CN(C(=O)c1ccc([N+](=O)[O-])o1)CC2,active: 13 µM,
CCOc1ccc(OCCC(=O)OCC(=O)N2CCN(S(=O)(=O)c3ccc(C)cc3)CC2)cc1,"inconclusive [cytotoxic, single point]",
COc1cc2c(c(OC)c1OC)-c1ccc(OC)c(=O)cc1[C@@H](N(C)CC#CCO)CC2,active: 0.0073 µM,
O=C(Nc1ccc(N2CCCC2)cc1)c1cc(Cl)ccc1Cl,"inconclusive [cytotoxic, single point]",
Cc1cccc(S(=O)Cc2ccc(C(=O)NC3CCN(Cc4ccccc4)CC3)o2)c1 (stereo not given),inactive,
O=C(OCc1ccccc1)N1CCC2CC1c1ccc(N3CCN(Cc4ccc5c(c4)OCO5)CC3)cc12 (stereo not given),"inconclusive [cytotoxic, single point]",
C#CCn1cc(/C=N/Nc2nc3ccccc3[nH]2)c2ccccc21,active: 16.4 µM,
Cc1ccc(Nc2c([N+](=O)[O-])c(=O)oc3ccccc23)cc1,"inconclusive [cytotoxic, partial curve]",
COc1ccc(CCN(C)CC(O)COC(c2ccc(F)cc2)c2ccc(F)cc2)cc1OC (stereo not given),active: 23.1 µM,
COc1ccc(OC2CCN(S(=O)(=O)c3ccc(OC)cc3)CC2)cc1,inactive,
O=C(COc1ccccc1-c1ccccc1)N/N=C/c1cccnc1,"inconclusive [cytotoxic, single point]",
O=[N+]([O-])c1cc(/C=N/O)ccc1SCc1ccccc1Cl,"inconclusive [cytotoxic, single point]",
CC(=O)c1c(O)cc(C)n(Nc2nc(C)cc(C)n2)c1=O,"inconclusive [cytotoxic, partial curve]",
CCOc1ccc2c(c1)C(C)=CC(C)(C)N2S(=O)(=O)c1ccc(F)cc1,"inconclusive [cytotoxic, partial curve]",
COc1cccc(C(=O)Nc2c3c(nc4c2CCC4)CCCC3)c1,inactive,
Cc1ccccc1OCCOC(=O)c1c(-c2ccccc2)noc1C,active: 7.31 µM,
COc1ccccc1N1CCN(c2cc(N3CCCC3)nc(C)n2)CC1,,inconclusive: -24.4% [cytotoxic]
O=C(Nc1cccc(Cl)c1N1CCCC1)c1cc2ccccc2o1,"inconclusive [cytotoxic, single point]",
CCOc1cc(N2CCOCC2)c(OCC)cc1NC(=O)c1cc(S(=O)(=O)N2CCOCC2)ccc1Cl,inactive,
O=C(CSc1cccc[n+]1[O-])CSc1cccc[n+]1[O-],active: 1.03 µM,
Cc1cccc(Cn2ncc(Cl)c(Cl)c2=O)c1,active: 12.6 µM,
O=C(Nc1ccc(NC(=O)c2ccc3c(c2)OCCO3)cc1)c1ccccc1,active: 16.4 µM,

SMILES,Potency,"activity, negative = less viability"
Cc1ccc(S(=O)(=O)N(C)CCCC(=O)Nc2cccc3ccccc23)cc1,"inconclusive [cytotoxic, single point]",
CCOC(=O)c1cc(NC(=O)COc2ccc([N+](=O)[O-])cc2)cc(C(=O)OCC)c1,"inconclusive [cytotoxic, single point]",
COc1cc(-c2cc3nc(NC4CCCCC4)ccn3n2)cc(OC)c1OC,active: 18.4 µM,
Cc1ccc(SCc2[nH]nc3c2C(c2ccco2)C(C#N)=C(N)O3)cc1 (stereo not given),"inconclusive [cytotoxic, single point]",
CN(Cc1cnc2nc(N)nc(N)c2n1)c1ccc(C(=O)NC(CCC(=O)O)C(=O)O)cc1C(F)(F)F (stereo not given),"inconclusive [cytotoxic, full curve]",
Oc1ccc2ccccc2c1N=Nc1nccs1,"inconclusive [cytotoxic, full curve, poor fit]",
O=C(NC1CCCC1)C(C1CC1)n1c(-c2ccccn2)nc2ccccc21 (stereo not given),inactive,
CSCCC(c1nnnn1C1CCCCC1)N1CCN(C/C=C/c2ccccc2)CC1 (stereo not given),"inconclusive [cytotoxic, single point]",
Cn1c(=O)oc2cc(S(=O)(=O)N3CCC(C(=O)N4CCc5ccccc5C4)CC3)ccc21,inactive,
CCOCCOC(=O)C1=C(C)NC2=C(C(=O)CC(c3cccs3)C2)C1c1ccsc1 (stereo not given),"inconclusive [cytotoxic, single point]",
CCC(C)(C)C1CCC2(CC1)NC(=S)N(c1ccccc1)N2 (stereo not given),"inconclusive [cytotoxic, partial curve]",
O=C(NC1CCCCCCC1)C1CCN(c2nc3ccccc3o2)CC1,"inconclusive [cytotoxic, single point]",
O=S(=O)(c1ccccc1Br)N(Cc1ccccc1)CC(O)COCc1ccccc1 (stereo not given),"inconclusive [cytotoxic, single point]",
CCN1CCN(c2ncc(C(=O)Nc3ccccc3C(=O)OC)c3ccccc23)CC1,active: 20.6 µM,
CN(C)S(=O)(=O)N1CCC(Oc2ccc(C(=O)N3C[C@H]4CC[C@H]3C4)cc2)CC1,"inconclusive [cytotoxic, single point]",
COc1ccc(C=NNC(=O)NN=Cc2ccc(OC)c(OC)c2)cc1OC,"inconclusive [cytotoxic, partial curve]",
O=C(NCCc1ccco1)C(=O)NCC1CCCN1S(=O)(=O)c1ccccc1 (stereo not given),"inconclusive [cytotoxic, single point]",
Cc1ccc(NC(=O)C(Cc2ccccc2)n2cccc2)cc1 (stereo not given),inactive,
COc1ccc(CNC(=O)c2cccc(NC(=O)c3ccccc3)c2)cc1,inactive,
CC(=O)Nc1nc(-c2ccc3c(c2)CC(C)N3C(=O)C2CC2)c(C)s1 (stereo not given),"inconclusive [cytotoxic, partial curve]",
O=C(Nc1ccc(C(=O)NC2CCCCC2)cc1)c1cccnc1,"inconclusive [cytotoxic, single point]",
COc1ccc(F)cc1-c1cc(C(=O)NCc2ccc(C(F)(F)F)cc2)[nH]n1,"inconclusive [cytotoxic, single point]",
